Assay results from article PMC7819943, “Rice protein-binding microarrays: a tool to detect cis-acting elements near promoter regions in rice”.
The other results are listed elsewhere or left out.

These sequences were tested against T1, OsWOX13 (Oryza sativa, UniProt Q5QMM3 1-267) (assay: protein-binding microarray (RPBM); PBS, 2% BSA, 51.3 ng/ul salmon testes DNA, 50 uM zinc acetate, 200 nM TF, 25 C, 1 h; high values mean tight binding). Conditions: protein: recombinant; tags: N-terminal polyhistidine and DsRed monomer fusion (pET32a); label: CyDye5-dUTP incorporated in the synthesized complementary strand; 3' TTTTT single-stranded linker to array surface; dsDNA, one strand shown.
T1 sequence: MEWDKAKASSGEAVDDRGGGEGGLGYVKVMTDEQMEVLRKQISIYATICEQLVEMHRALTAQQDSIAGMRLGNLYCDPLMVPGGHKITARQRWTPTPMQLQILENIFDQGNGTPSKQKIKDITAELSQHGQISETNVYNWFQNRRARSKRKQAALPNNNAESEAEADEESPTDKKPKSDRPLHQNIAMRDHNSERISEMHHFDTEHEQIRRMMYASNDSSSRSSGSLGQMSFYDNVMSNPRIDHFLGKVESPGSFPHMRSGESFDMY
Procedure, shortened: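 Binding signal is defined as the fluorescence intensity of each feature in arbitrary units, read on an Axon 4000B scanner. Transcription factors with N-terminal polyhistidine and DsRed fusions came from E. coli BL21-CodonPlus and were purified on Ni–NTA. They were incubated at 200 nM for 1 h at 25 °C on a custom Agilent array that had been made double-stranded with Cy5-dUTP, with 50 µM zinc acetate present, and the array was washed.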

Row | Sequence | binding signal
1 | GGCAAATCAATCGAATCGATCCCCTCTCATCCGCTCGCGGCGGAGTCACCTAGTGCAG | 6560 fluorescence intensity (a.u.)
2 | GAAGGTGGTTGATTAAACATGGTAATAGCACTAGGAGGTTCGGAGTCACCTAGTGCAG | 4270 fluorescence intensity (a.u.)
3 | TTGAGTAAATTGGTGTTGCTGCTTCTTCCTCCTCCGATCACGGAGTCACCTAGTGCAG | 15700 fluorescence intensity (a.u.)
4 | AATTTACCCGGTCCAAATTGAAAAGATAGATTTAAAGGTGCGGAGTCACCTAGTGCAG | 3840 fluorescence intensity (a.u.)
5 | ATCTCTCCAGTCTGTCTAATAATCAAAATCAAACCAGACCCGGAGTCACCTAGTGCAG | 6180 fluorescence intensity (a.u.)
6 | ATAGAATAGAATAGATAGATAGATAGATAGTAGATAGATCCGGAGTCACCTAGTGCAG | 7420 fluorescence intensity (a.u.)
7 | ATATAATAGCTAATCAAACACTAGTCCGAAGACGTAGTATCGGAGTCACCTAGTGCAG | 21700 fluorescence intensity (a.u.)
8 | CCTGACAGATATTTATATAAATCGCTGCTGTCTTCTCAAACGGAGTCACCTAGTGCAG | 36000 fluorescence intensity (a.u.)
9 | GTAGTAGGATTGGTTCTCATAATTATCACATAATTTTCAACGGAGTCACCTAGTGCAG | 9810 fluorescence intensity (a.u.)
10 | AAAACGATTATTGAAAGGCTCCTATTGGATGGCCTAATCACGGAGTCACCTAGTGCAG | 3500 fluorescence intensity (a.u.)
11 | TAGTTTCATCAAATCAATAATTAAATATATTTTCATAATACGGAGTCACCTAGTGCAG | 8900 fluorescence intensity (a.u.)
12 | TTCTCCAATTGTAATCAGTCATCGCTTGTCCAATAATATTCGGAGTCACCTAGTGCAG | 4440 fluorescence intensity (a.u.)
13 | TTGATTTTGTTAAAATTTATATCACTATTGAAACGTCCACCGGAGTCACCTAGTGCAG | 10600 fluorescence intensity (a.u.)
14 | TTAAAATAGTTAATACTTAATTAATCATGCACTAATTTTACGGAGTCACCTAGTGCAG | 3380 fluorescence intensity (a.u.)
15 | ATGCATATTATTGTGGTTGATTGATGAATTTTAAACTCAGCGGAGTCACCTAGTGCAG | 47800 fluorescence intensity (a.u.)
16 | ATGTAATTTGCAAAACAATAGTGTTCCCCTTTAATTTTGTCGGAGTCACCTAGTGCAG | 21300 fluorescence intensity (a.u.)
17 | ATTAAATTACATACGTATTACATATGCAATTTATGTAATCCGGAGTCACCTAGTGCAG | 20000 fluorescence intensity (a.u.)
18 | AATGAGTTATTAGATTGGATATAAATGAATTGGAGCTAGTCGGAGTCACCTAGTGCAG | 21800 fluorescence intensity (a.u.)
19 | CAATAAAACCAACAGATTAATTAGGAAGATAAACAGGGAGCGGAGTCACCTAGTGCAG | 6240 fluorescence intensity (a.u.)
20 | ATTAATAATGTATAATTTATTTTAGTGGTATTAATGTTGTCGGAGTCACCTAGTGCAG | 22400 fluorescence intensity (a.u.)
21 | TATCATGACAGGCAAATCAGAAGCCACAAATTAAGATGCACGGAGTCACCTAGTGCAG | 12100 fluorescence intensity (a.u.)
22 | GGAGAAACAGGTAAATTTCCTTTACATCGTTTTACATGACCGGAGTCACCTAGTGCAG | 3880 fluorescence intensity (a.u.)
23 | TTTTCTTCAAATTGACTTGGACCAATGATGAAACACGTAACGGAGTCACCTAGTGCAG | 3600 fluorescence intensity (a.u.)
24 | AATTAATTTGTTCCTTTCGTCAGGGCTTGAGTCATGGAGTCGGAGTCACCTAGTGCAG | 22600 fluorescence intensity (a.u.)
25 | GACTAAATTGCCCCTGAAGCATTTTCATCTCTACTCCTCCCGGAGTCACCTAGTGCAG | 14600 fluorescence intensity (a.u.)
26 | ATGCAAATTTAAATTCAACTTCTACTTCTCACAACGAAAACGGAGTCACCTAGTGCAG | 5600 fluorescence intensity (a.u.)
27 | CATACTGACCAAGTTTTGACAGAATGACAGGTGGGGCCCACGGAGTCACCTAGTGCAG | 4310 fluorescence intensity (a.u.)

Row | Sequence | binding signal
28 | CAGATGTAATTTATAGTTAATGTTTTGAAAGTTTAACGATCGGAGTCACCTAGTGCAG | 24200 fluorescence intensity (a.u.)
29 | TAATAATTGCTAGTGGGTAATGATGTGACACACTTGCATGCGGAGTCACCTAGTGCAG | 28700 fluorescence intensity (a.u.)
30 | TTCAAATTTAATGCAAAGATTAAGTTGATGAGAAACGACGCGGAGTCACCTAGTGCAG | 6640 fluorescence intensity (a.u.)
31 | TCCCATAAATAAATTAACGGAGAGAGCGGAGCGAACGCAGCGGAGTCACCTAGTGCAG | 3640 fluorescence intensity (a.u.)
32 | TATATATATATATATATATATATATGAAAGTTTTATTCATCGGAGTCACCTAGTGCAG | 13400 fluorescence intensity (a.u.)
33 | ATAATAATTGATAGGTAACCATGATTATCGATAAAACCATCGGAGTCACCTAGTGCAG | 59000 fluorescence intensity (a.u.)
34 | AAAATCAATTAACATTTTAATTTTCCACCTTCCATACCTACGGAGTCACCTAGTGCAG | 25400 fluorescence intensity (a.u.)
35 | GGTCTAAGTAAATTTAATTGTACTGTTCAAATTAATAATGCGGAGTCACCTAGTGCAG | 8460 fluorescence intensity (a.u.)
36 | GCAATTGAGAATAATTTGATAGGGACCAAAGAAGACTACTCGGAGTCACCTAGTGCAG | 13100 fluorescence intensity (a.u.)
37 | GAAGTAGTTAAGGGTGATTTATGTCATCACAAGTAAACCTCGGAGTCACCTAGTGCAG | 3800 fluorescence intensity (a.u.)
38 | ACACACCTAATTACATATTTGTTTTAATGTCCTGTGACAACGGAGTCACCTAGTGCAG | 9500 fluorescence intensity (a.u.)
39 | TTGAAAATTAATTATAAATATTAAACGTGGACTATTAATACGGAGTCACCTAGTGCAG | 13500 fluorescence intensity (a.u.)
40 | TCGTGATTAGAATCTTAATCTCTAGCCTGTCTTTGCTTGCCGGAGTCACCTAGTGCAG | 56200 fluorescence intensity (a.u.)
41 | AATAATTTAATAAAAGATATTATATGGAAAATGTTGCATGCGGAGTCACCTAGTGCAG | 30400 fluorescence intensity (a.u.)
42 | TATTAATCCATGATTTGCTACAGTAATGCTATAGTATCAGCGGAGTCACCTAGTGCAG | 8160 fluorescence intensity (a.u.)
43 | GTTGATGGGAACTAGTATTCTAGAGTCGTTGCTTATATATCGGAGTCACCTAGTGCAG | 4410 fluorescence intensity (a.u.)
44 | TCCTTCGATTGATCAAATGACTGTTTGATTATGGAGTAGACGGAGTCACCTAGTGCAG | 22900 fluorescence intensity (a.u.)
45 | CGGTTTTAATTAATTCGTTGGATTCAATCTTCGTTTAACTCGGAGTCACCTAGTGCAG | 24500 fluorescence intensity (a.u.)
46 | TCTAATTAATTTGTCATTAGCAAATGTTTATTGTAGCATCCGGAGTCACCTAGTGCAG | 58400 fluorescence intensity (a.u.)
47 | TTTAGATAATTAATATTTAAATAATTATACTCTCGTTTTGCGGAGTCACCTAGTGCAG | 29600 fluorescence intensity (a.u.)
48 | CACATCCAAATTTGTAATAATATAACTTTAGTAGGATATCCGGAGTCACCTAGTGCAG | 7770 fluorescence intensity (a.u.)
49 | TAAGTGATTTTAGTTAGATGGGACACATCATATTATTATGCGGAGTCACCTAGTGCAG | 9700 fluorescence intensity (a.u.)
50 | AATTTAATTCATCATTCTAATAATTTATTTACTGGATTCCCGGAGTCACCTAGTGCAG | 7440 fluorescence intensity (a.u.)
51 | CCTACTTCTAGTCTGATTGATTTTAGCTATAAAATTGCTACGGAGTCACCTAGTGCAG | 23300 fluorescence intensity (a.u.)
52 | GATCGACATGAAATTAATTAAAGCTAGCTATAGGGAGCAACGGAGTCACCTAGTGCAG | 4550 fluorescence intensity (a.u.)
53 | TTTATTGATTAAATAGAGTCATTACAATCTCGCAGAACAACGGAGTCACCTAGTGCAG | 22200 fluorescence intensity (a.u.)
54 | GGAACGAAACAAGGCCTAATTGAGGATGCAAGAGAATCCTCGGAGTCACCTAGTGCAG | 6590 fluorescence intensity (a.u.)
